The record followed here is paper PMC12102759 (2025).

The target in the assay is N_(12-26) wild-type peptide. Briefly: FP.

B1: G3BP1 NTF2-like domain ([…]), tag cleaved, for FP (domain or fragment)
chain: not shown
Regarding B1, the Kd came to 2 µM.

Usually Kd stands for the free concentration of one partner at which half of the binding sites on the other are occupied at equilibrium, for simple one-to-one binding. The low end stands for a tighter complex, the high end for a looser complex.
